We go through 86 sequences from the supplement of paper PMC3334620.

The full ranking holds about 33,000 sequences; the median of “E-score (-0.5 to 0.5)” is about -0.012, and the highest 2% start at about 0.29. The list shows a part of the results.

This experiment deals with T1, Ybr033w (UniProt P38073).
T1 sequence: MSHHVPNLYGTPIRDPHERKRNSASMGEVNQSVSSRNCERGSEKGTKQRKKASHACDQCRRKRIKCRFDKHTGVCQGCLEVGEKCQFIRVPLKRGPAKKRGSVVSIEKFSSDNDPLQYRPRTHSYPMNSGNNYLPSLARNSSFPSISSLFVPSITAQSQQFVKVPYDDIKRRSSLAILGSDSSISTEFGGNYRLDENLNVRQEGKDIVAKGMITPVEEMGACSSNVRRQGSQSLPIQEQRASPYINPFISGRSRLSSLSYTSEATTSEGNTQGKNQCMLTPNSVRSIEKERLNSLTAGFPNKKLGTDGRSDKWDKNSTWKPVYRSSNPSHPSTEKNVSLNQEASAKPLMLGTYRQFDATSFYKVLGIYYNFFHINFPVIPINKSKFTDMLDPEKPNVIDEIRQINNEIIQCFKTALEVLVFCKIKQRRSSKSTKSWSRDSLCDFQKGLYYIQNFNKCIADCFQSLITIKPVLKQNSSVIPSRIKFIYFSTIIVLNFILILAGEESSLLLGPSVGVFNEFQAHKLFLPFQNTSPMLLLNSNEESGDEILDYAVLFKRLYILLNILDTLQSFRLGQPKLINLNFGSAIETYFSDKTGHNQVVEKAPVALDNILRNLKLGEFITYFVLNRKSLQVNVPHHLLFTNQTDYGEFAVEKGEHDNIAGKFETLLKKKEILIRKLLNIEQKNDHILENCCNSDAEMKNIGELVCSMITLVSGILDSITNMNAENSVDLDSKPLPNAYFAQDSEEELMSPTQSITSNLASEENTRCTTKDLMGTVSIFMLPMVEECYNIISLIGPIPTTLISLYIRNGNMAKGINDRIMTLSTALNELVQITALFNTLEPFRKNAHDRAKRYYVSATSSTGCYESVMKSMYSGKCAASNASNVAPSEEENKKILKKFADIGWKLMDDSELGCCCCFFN
In words: PBM E-score (8-mer binding enrichment) (E-score (-0.5 to 0.5)); higher = stronger / more preferred TF binding; most listed sequences are background and not binding sites. The settings on record: protein concentration: 200 nM; construct: GST-full length. Put shortly: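 Universal all-10-mer Agilent arrays, double-stranded by primer extension on fresh or once-stripped slides, were probed with about 100-200 nM GST-tagged yeast transcription factors made by PURExpress. Fluorescent anti-GST detected bound protein, and masliner normalised the scans. E-scores from the Universal PBM Analysis Suite were given to each ungapped eight-base word pooled with its reverse complement.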
Consider TAATCACA, for which the “PBM E-score” value turned out to be 0.207.

Turning to ACCGGTGG, the “PBM E-score” value was -0.303.

For GGACTCAC, the “PBM E-score” value is -0.242.

Consider CCACAGAC, for which the “PBM E-score” value was -0.215.

Turning to GAGGTCAC, the “PBM E-score” value was -0.196.

As to CGACCCCC, the “PBM E-score” value was -0.333.

CCGTCGAC: the “PBM E-score” value is -0.218.

For CCCCAGGA, the “PBM E-score” value was -0.311.

Turning to GCTGATAC, the “PBM E-score” value is -0.0861.

As for AATGACCG, the “PBM E-score” value is -0.0995.

For ATCTGCTA, the “PBM E-score” value is 0.164.

On to ACACGCCT, for which the “PBM E-score” value is -0.129.

Regarding CTCGCGCA, the “PBM E-score” value is -0.0366.

With GTGGTAGA, the “PBM E-score” value was -0.158.

In the case of AATGCGCG, the “PBM E-score” value was 0.105.

Take AGAAGCTA: the “PBM E-score” value was -0.0254.

As to CAAGGCGG, the “PBM E-score” value was -0.278.

On to ACGTTGAC, for which the “PBM E-score” value is -0.0727.

As to GCAGGTAA, the “PBM E-score” value was 0.0549.

Consider GTCCCCAA, for which the “PBM E-score” value is -0.0974.

AATGGCAC: the “PBM E-score” value was -0.0634.

Consider ATACCCAA, for which the “PBM E-score” value came out at 0.197.

On to ACCTGATC, for which the “PBM E-score” value was -0.0169.

Take AACGCTTG: the “PBM E-score” value is -0.194.

Consider TATCAAGA, for which the “PBM E-score” value came out at 0.269.

On to ACAGAACC, for which the “PBM E-score” value was found to be 0.00465.

As to TGTATAAA, the “PBM E-score” value is 0.136.

For AAACCCTC, the “PBM E-score” value is -0.0901.

As for CAGCAACC, the “PBM E-score” value was -0.165.

As for TACTATAA, the “PBM E-score” value turned out to be 0.237.

CGAGAGCG: the “PBM E-score” value is -0.196.

Consider CAGGCGCG, for which the “PBM E-score” value was -0.203.

Regarding CCGCTCCG, the “PBM E-score” value was -0.0118.

As to ACTCGGAG, the “PBM E-score” value came out at 0.0528.

On to GTTTACGA, for which the “PBM E-score” value is 0.0161.

For the sequence ACCCATAT, the “PBM E-score” value came out at 0.177.

As for AACGATGA, the “PBM E-score” value is 0.0671.

In the case of ACATTTAA, the “PBM E-score” value amounted to 0.23.

Regarding ACGATATG, the “PBM E-score” value was found to be 0.119.

Turning to GCCCGCAC, the “PBM E-score” value was -0.0921.

For ATGTACGC, the “PBM E-score” value was -0.147.

With CTGACTCC, the “PBM E-score” value is -0.107.

Turning to GCACGGTA, the “PBM E-score” value is -0.136.

On to ACGAGAAC, for which the “PBM E-score” value came out at 0.0954.

With CTCTTAAC, the “PBM E-score” value was -0.0309.

Turning to GCACTTCC, the “PBM E-score” value was -0.149.

GCAATCAC: the “PBM E-score” value is -0.0161.

Turning to AATGAGGC, the “PBM E-score” value was -0.0498.

Regarding ATTCCCAC, the “PBM E-score” value was -0.022.

For the sequence AAAGGCGG, the “PBM E-score” value was -0.0684.

On to TAGGCAAA, for which the “PBM E-score” value was found to be 0.0442.

Consider AATAGGTC, for which the “PBM E-score” value is 0.0419.

With ACCGATTA, the “PBM E-score” value is 0.0957.

For the sequence CTGATTGA, the “PBM E-score” value came to 0.00921.

For AAACCACT, the “PBM E-score” value was determined as 0.159.

Turning to GCCCGGAC, the “PBM E-score” value is -0.191.

With AATAGCGA, the “PBM E-score” value was determined as 0.186.

Regarding CCTCCGAA, the “PBM E-score” value was -0.142.

On to GAACAGGC, for which the “PBM E-score” value was -0.125.

For AATACCTG, the “PBM E-score” value stood at 0.0872.

On to ACTCGCTA, for which the “PBM E-score” value is -0.0623.

For CGGGGAGC, the “PBM E-score” value is -0.294.

In the case of CGCACGAC, the “PBM E-score” value was -0.227.

As to ATTGCACA, the “PBM E-score” value was 0.156.

As for GAGAAGTA, the “PBM E-score” value was 0.0419.

Turning to ATAAGCGA, the “PBM E-score” value was -0.0227.

In the case of ACGCACAC, the “PBM E-score” value worked out at 0.157.

On to AGTGTGAT, for which the “PBM E-score” value is 0.113.

Regarding CGTCACAG, the “PBM E-score” value is -0.0478.

In the case of CCTGTACC, the “PBM E-score” value is -0.188.

As to AATGAGAA, the “PBM E-score” value turned out to be 0.0586.

Take CCGACAAC: the “PBM E-score” value is -0.209.

As for CCTGTCAC, the “PBM E-score” value is -0.266.

For the sequence AGGTGGGC, the “PBM E-score” value was -0.311.

On to AACCGTTC, for which the “PBM E-score” value is 0.132.

Consider AGTCGAAT, for which the “PBM E-score” value was -0.0612.

Turning to ACCCACCT, the “PBM E-score” value is -0.245.

Regarding GTGAAGTA, the “PBM E-score” value stood at 0.0148.

As for CCCGAGGG, the “PBM E-score” value was -0.202.

With ATTTCGTC, the “PBM E-score” value is 0.135.

With TATAACAA, the “PBM E-score” value is 0.235.

In the case of GCCTGGGA, the “PBM E-score” value was -0.191.

As for ACTGATCG, the “PBM E-score” value was -0.0737.

In the case of CATCGAAC, the “PBM E-score” value is -0.0795.

For the sequence ACGGCAGA, the “PBM E-score” value is -0.0336.

For the sequence AAACTACA, the “PBM E-score” value was 0.195.
